Experimental data: US20130197191A1 (Amgen, published 2013)
Read-outs that look alike come from different tables or passages of the source.

T1: recombinant human β-Klotho (human, UniProt Q86Z14 53-996, limits assumed, biotinylated in the AlphaScreen assays (site not stated))
T1 construct: also called rhβ-klotho; huβKlotho-His
T1 sequence: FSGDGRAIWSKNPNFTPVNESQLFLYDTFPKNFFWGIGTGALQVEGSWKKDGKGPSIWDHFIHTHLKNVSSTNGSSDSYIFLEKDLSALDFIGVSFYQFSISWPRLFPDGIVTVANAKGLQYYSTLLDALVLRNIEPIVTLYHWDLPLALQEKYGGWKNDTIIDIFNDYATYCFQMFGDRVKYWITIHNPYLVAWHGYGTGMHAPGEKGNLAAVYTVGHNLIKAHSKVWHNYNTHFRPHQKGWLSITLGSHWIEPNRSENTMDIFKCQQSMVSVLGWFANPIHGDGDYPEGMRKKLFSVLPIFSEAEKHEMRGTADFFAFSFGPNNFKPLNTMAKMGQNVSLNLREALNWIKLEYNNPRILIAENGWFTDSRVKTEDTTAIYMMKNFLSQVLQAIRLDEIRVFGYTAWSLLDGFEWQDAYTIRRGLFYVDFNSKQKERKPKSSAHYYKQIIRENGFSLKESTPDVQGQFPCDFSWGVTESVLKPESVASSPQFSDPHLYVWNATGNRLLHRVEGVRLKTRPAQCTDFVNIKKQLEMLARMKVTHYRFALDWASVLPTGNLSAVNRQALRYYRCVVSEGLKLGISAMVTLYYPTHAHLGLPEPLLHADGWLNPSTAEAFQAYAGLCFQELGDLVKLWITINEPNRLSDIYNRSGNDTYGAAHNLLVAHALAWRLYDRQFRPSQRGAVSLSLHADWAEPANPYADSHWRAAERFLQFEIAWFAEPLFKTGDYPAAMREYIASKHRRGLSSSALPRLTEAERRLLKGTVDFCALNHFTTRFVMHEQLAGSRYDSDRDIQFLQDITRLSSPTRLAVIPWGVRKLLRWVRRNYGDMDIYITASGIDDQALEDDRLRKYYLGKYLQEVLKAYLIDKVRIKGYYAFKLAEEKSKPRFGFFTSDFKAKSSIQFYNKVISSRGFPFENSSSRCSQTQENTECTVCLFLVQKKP


Experiments:
[1] = target: T1, recombinant human β-Klotho; experiment: phage panning
[2] = target: T1, recombinant human β-Klotho; experiment: phage panning; remark: listed apart in the source

| binding result [1] | binding result [2] | Binder |
| --- | --- | --- |
| binds |  | β-Klotho walked dimer bKWD38 (designed binder) CAAGEFQCSSGRCLPRPWVCDGDNDCGDDSDETNCRASAHTCHSFNQFECRNGQCIPLHLVCDGVPDCGDNSDETDCGDSHILPFSTPGPST |
|  | binds | β-Klotho walked dimer bKWD28 (designed binder) CGANEFQCRSTGICVPVEWVCDGDNDCGDGSDEPPVCGDSHILPFSTPGPSTCQPDEFTCSSGRCIPQPWLCDGLNDCGDGSDEPPAHCSAPASEPPGSL |
